Laboratory results reported in PubChem BioAssay (Tox21).
Several values for one entry are separate records, joined by “and”; a condition that tells them apart may be missing. Identical values can stand only once. The shares of active, inactive and inconclusive entries below differ from those in the screen. Where the call is inconclusive, the potency comes from a doubtful curve fit. The source holds several records for some structures; these can differ, active in one and inactive in another. Activity calls are given as the source filed them. Calls follow the shape of the dose curve; as a rule, active = well fitted curve in the direction sought with a large enough effect in the repeat runs; inconclusive = weak or mixed curves; inactive = no such curve, though single readings can be large; an effect the other way counts as inactive or inconclusive.

assay: qHTS RealTime-Glo MT Cell Viability Assay in HepG2 cells - 32 hour (AID 1224877); conditions: RealTime-Glo luminescence; series mostly up to 76.8 µM; also: nearly all actives have a fitted effect of over 55% in size
Method in brief: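 Real-time, nonlytic viability: 600 HepG2 cells/well mixed with NanoLuc enzyme plus prosubstrate; 5 h settle, compound (DMSO) added by pintool; luminescence monitored over 40 h at 37 C.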
Potency is read from the fitted curve at half-maximal effect; tags tell the direction and shape of the fitted curve.

| Structure (SMILES) | Potency |
| --- | --- |
| COc1cc(-c2ccc(N)c(OC)c2)ccc1N | inconclusive: 41.7 µM [cytotoxic, partial curve, poor fit] |
| Oc1cc(Cl)ccc1Oc1ccc(Cl)cc1Cl | inconclusive: 26.8 µM [cytotoxic, partial curve] |
| CN1CSC(=S)N(C)C1 | inconclusive: 24.4 µM [cytotoxic, partial curve] |
| COP(=O)(OC)O/C(=C\Cl)c1cc(Cl)c(Cl)cc1Cl | inconclusive: 54.9 µM [cytotoxic, single point] |
| N#Cc1sc2c(=O)c3ccccc3c(=O)c=2sc1C#N | active: 11 µM |
| CCCCCCCCc1ccc(O)cc1 | inconclusive: 49.3 µM [cytotoxic, single point] |
| CC(C)CC(C)Nc1ccc(Nc2ccccc2)cc1 (centres undefined) | inconclusive: 48.2 µM [cytotoxic, single point] |
| Clc1ccc(C(Cl)(Cl)Cl)cn1 | inactive |
| C(=NC1CCCCC1)=NC1CCCCC1 | active: 12.4 µM and active: 12.3 µM |
| O=[N+]([O-])c1cc([N+](=O)[O-])c2ccccc2c1 | inconclusive: 21.9 µM [cytotoxic, single point] |

assay: A CellTox Green Cytotoxicity Assay to monitor cytotoxicity in HepG2 cells - 24 hour (AID 1224878); conditions: CellTox Green fluorescence; series mostly up to 76.8 µM; also: nearly all actives have a fitted effect of over 45% in size
Method in brief: (§1)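 HepG2, 600 cells/well premixed w/ CellTox Green; 5 h settle, 37 C/5% CO2; pintool cpd add (DMSO); 37 C, 40 h; fluorescence read at 0, 8, 16, 24, 32, 40 h.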

| Structure (SMILES) | Potency |
| --- | --- |
| O=C(O)COc1nc(Cl)c(Cl)cc1Cl | inconclusive: 63.1 µM [activator, single point] |
| ClC(Cl)=C(c1ccc(Cl)cc1)c1ccc(Cl)cc1 | inconclusive: 63.2 µM [activator, single point] |
| COP(=O)(OC)O/C(=C\Cl)c1cc(Cl)c(Cl)cc1Cl | inconclusive: 49 µM [activator, single point] |
| N#Cc1sc2c(=O)c3ccccc3c(=O)c=2sc1C#N | active: 12.3 µM |
| C(=NC1CCCCC1)=NC1CCCCC1 | active: 11 µM and active: 15.5 µM |
| O=[N+]([O-])c1cc([N+](=O)[O-])c2ccccc2c1 | inconclusive: 0.49 µM [activator, single point] |
| C1=Cc2cccc3cccc1c23 | inconclusive: 54.9 µM [activator, single point] |
| CCC[CH2][Sn]([Cl])([Cl])[CH2]CCC | active: 442 nM and active: 436 nM |

assay: A CellTox Green Cytotoxicity Assay to monitor cytotoxicity in HepG2 cells - 40 hour (AID 1224879); conditions: CellTox Green fluorescence; series mostly up to 76.8 µM; also: nearly all actives have a fitted effect of over 40% in size
Method in brief: as §1

| Structure (SMILES) | Potency |
| --- | --- |
| CC1CCC(C(C)C)C(OC(=O)c2ccccc2N)C1 (centres undefined) | inconclusive: 54.2 µM [activator, single point] |
| C=CC(=O)OCC(COC(=O)C=C)(COC(=O)C=C)COC(=O)C=C | active: 21.9 µM |
| Oc1ccc(C2(c3ccc(O)cc3)CCCCC2)cc1 | inconclusive: 52.1 µM [activator, single point] |
| Oc1cc(Cl)ccc1Oc1ccc(Cl)cc1Cl | active: 25.1 µM and active: 23.9 µM |
| C[C@H]1CCCC(=O)CCC/C=C/c2cc(O)cc(O)c2C(=O)O1 | inconclusive: 53 µM [activator, partial curve, poor fit] and inconclusive: 20.2 µM [activator, single point] |
| ClC(Cl)=C(c1ccc(Cl)cc1)c1ccc(Cl)cc1 | inconclusive: 56.3 µM [activator, single point] |
| COP(=O)(OC)O/C(=C\Cl)c1cc(Cl)c(Cl)cc1Cl | inconclusive: 54.9 µM [activator, single point] |
| O=P(O)(O)CN(CP(=O)(O)O)CP(=O)(O)O | inactive |
| CC(C)CC(C)Nc1ccc(Nc2ccccc2)cc1 (centres undefined) | inconclusive: 54 µM [activator, partial curve, poor fit] |
| COc1cccc(C(=O)CCN[C@@H](C)[C@H](O)c2ccccc2)c1 | inconclusive: 26.8 µM [activator, single point] |
| C[C@]12CC[C@H](O)CC1=CC[C@@H]1[C@@H]2CC[C@]2(C)C(=O)CC[C@@H]12 | inconclusive: 49 µM [activator, partial curve, poor fit] |
| CCC[CH2][Sn]([CH2]CCC)([CH2]CCC)[O]C(=O)c1ccccc1 | active: 0.549 µM |
| C1=Cc2cccc3cccc1c23 | inconclusive: 54.9 µM [activator, single point] |

assay: qHTS RealTime-Glo MT Cell Viability Assay in HEK293 cells - 0 hour (AID 1224880); conditions: RealTime-Glo luminescence; series mostly up to 76.8 µM; also: nearly all actives have a fitted effect of over 45% in size
Method in brief: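 Luminescence readout at each listed time point; HEK293, 600 cells/well, RealTime-Glo MT reagent added with cells; compounds pinned (23 nL in DMSO) after 5 h at 37 C; continuous culture at 37 C.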

| Structure (SMILES) | Potency |
| --- | --- |
| Oc1cc(Cl)ccc1Oc1ccc(Cl)cc1Cl | inconclusive: 63.1 µM [falling, single point] |
| C[C@H]1CCCC(=O)CCC/C=C/c2cc(O)cc(O)c2C(=O)O1 | inconclusive: 9.42 µM [rising, partial curve] |
| N#Cc1sc2c(=O)c3ccccc3c(=O)c=2sc1C#N | active: 7.76 µM |
| O=P(O)(O)CN(CP(=O)(O)O)CP(=O)(O)O | inconclusive: 13.5 µM [rising, single point] and inconclusive: 54.9 µM [rising, single point] |
| c1ccc2c(c1)Sc1ccccc1N2CC1CN2CCC1CC2 (centres undefined) | inconclusive: 16.9 µM [rising, partial curve] |
| Nc1ccc(Cl)cc1N | inconclusive: 38.9 µM [falling, partial curve, poor fit] |
| CCCCCCCCc1ccc(O)cc1 | inconclusive: 62 µM [falling, partial curve, poor fit] |
| CC(C)CC(C)Nc1ccc(Nc2ccccc2)cc1 (centres undefined) | inconclusive: 4.82 µM [falling, full curve] |
| CCC[CH2][Sn]([CH2]CCC)([CH2]CCC)[O]C(=O)c1ccccc1 | inconclusive: 24.5 µM [rising, partial curve, poor fit] |
| CC(=O)O[C@H]1CC[C@@]2(C)C(=CC[C@@H]3[C@@H]2CC[C@]2(C)C(=O)CC[C@@H]32)C1 | inconclusive: 19.5 µM [rising, partial curve, poor fit] |
| O=[N+]([O-])c1ccc(O)c([N+](=O)[O-])c1 | inconclusive: 21.9 µM [rising, partial curve] |
| C1=Cc2cccc3cccc1c23 | inconclusive: 43.6 µM [rising, partial curve, poor fit] |
| C=CC(=O)OCCCCOC(=O)C=C | inactive |
